In all, about 48,000 compounds went through this assay and about 450 (0.94%) were called active. Another 19% or so got no clear call; they are omitted. Calls come from the whole dose curve; as a rule, active = well fitted inhibition curve with a large enough effect; inconclusive = small, poorly fitted or top-dose-only effect; inactive = no such curve, though single readings can be large or run the other way. The list shows a part of the results.
experiment: Primary qHTS for Identification of Small Molecule Inhibitors of Huntingtin Promoter Activity; conditions: HEK293 HTT promoter firefly luciferase reporter (activity 0% = vehicle and -100% = no light), 24 h; series mostly up to 57.5 µM; activity change, negative = inhibition: at the top concentration; note: nearly all actives have a fitted effect of over 50% in size
Procedure, shortened: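 Quantitative HTS used concentration series of up to 57.5 uM final on HEK293 luciferase reporter cells, 24 h at 37 degrees C. Readout was Dual-Glo firefly luminescence.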

Activity change, negative = inhibition, inactive:
CC(=O)Nc1c(C)nn(-c2ccccc2)c1N1CCC(C(=O)NCc2ccccc2Cl)CC1 -14.1%, Cc1ccc(S(=O)Cc2nc(-c3ccc(C(=O)NCc4cccc(C)c4)cc3)oc2C)cc1 (stereo not given) -7.12%, O=C(CCn1nc(-c2ccc(Cl)cc2)ccc1=O)NCCc1ccccc1 17.5%, CCOC(=O)c1c(NC(=O)CSc2cn(CCNC(=O)c3c(F)cccc3F)c3ccccc23)sc2c1CCC2 -25.6%, CCOC(=O)COc1ccc(F)cc1C(=O)c1ccn2nc(-c3ccc(Cl)cc3)cc2n1 -2.89%, CCOC(=O)c1noc2ncnc(Nc3cccc(OC)c3)c12 -25.2%, O=C(COc1ccccc1Cl)Nc1ccc2nc(SCC(=O)N3CCCC3)sc2c1 -25.1%, CCCn1c(=O)c2sccc2n2c(CCCC(=O)NCc3ccccc3)nnc12 -21.2%, COc1cccc(NC(=O)CSc2nc(-c3ccccc3Cl)nc3c2Cc2c(CO)cnc(C)c2O3)c1 -0.906%, COc1ccc(-c2cc(-c3ccccc3)nc(SCC(=O)Nc3ccccc3F)c2C#N)cc1 -5.89%, CCOC(=O)C1=C(CS(=O)(=O)c2ccc(OC)c(Cl)c2)NC(=O)NC1c1cccc(OC)c1 (stereo not given) -9.88%, Clc1cccc(Cl)c1NC1=NCCN1, COc1cccc(NC(=O)CSc2nc3c([nH]c4ccccc43)c(=O)n2-c2cccc(Cl)c2)c1 -29.2%, Cc1ccc(Cn2ccn(Cc3cccc(C(F)(F)F)c3)c(=O)c2=O)cc1 -26.2%, Cc1ccc(-c2ccc(=O)n(CC(=O)Nc3ccc(C(C)C)cc3)n2)cc1 -7.52%, CCOC(=O)c1ccc(NC(=O)CSc2nc(C)c(Cc3ccccc3)c(=O)[nH]2)cc1 -16.4%, C=CCOc1ccc(C2c3c(oc4ccc(C)cc4c3=O)C(=O)N2CCCN2CCOCC2)cc1 (stereo not given) 2.5%, COCCNC(=O)CCn1c(=O)c2cc(OC)c(OC)cc2n(CC(=O)Nc2ccccc2OC)c1=O -6.01%, Cc1ccc(-n2nc(C)c3c(C)cc(=O)n(CC(=O)NC(C)C)c32)cc1 6.06%, CCN(CC)CCOC(=O)c1ccc(NC(=O)CSc2cc(=O)n(CC)c3ccccc23)cc1 8.91%, CCc1nn(CC(=O)Nc2ccc(C)cc2C)c(=O)c2cc3sccc3n12 10.4%, Cc1ccc(NC(=O)c2cn(-c3ccccc3)nc2-c2ccccc2)cc1 -30.5%, O=C(NCc1ccccc1)c1ccc(NC(=O)N2CCSc3ncccc32)cc1 -36.9%, COc1cc(OC)c(NC(=O)c2cnn(-c3cccc(Cl)c3C)c2C2CCN(C(=O)OC(C)(C)C)CC2)cc1Cl -9.26%, Cc1ccc(C2=NN(CC(=O)NC(C)c3ccccc3)C(=O)CC2)cc1 (stereo not given) -8.36%, COc1ccc(-c2cn3nc(N4CCC(C(=O)NCc5ccc(F)cc5)CC4)sc3n2)cc1 19.6%, COc1ccc(NC(=O)C2CCC(CNS(=O)(=O)c3csc(C(N)=O)c3)CC2)cc1 (stereo not given) -21.6%, CC(C)c1ccc(Nc2c(-c3ccc(N4CCOCC4)cc3)nc3ncccn23)cc1 -3.14%, COc1ccc(-c2onc(C)c2C)cc1S(=O)(=O)Nc1ccc(OC(F)(F)F)cc1 -27.3%, CCOC(=O)c1cccc(NC(=O)c2cc(S(=O)(=O)N3CCCC3)cn2C)c1 -12.7%, CCOC(=O)CNC(=O)c1cc2c(=O)n(CC)c3ccccc3c2s1 10.3%, COC(=O)c1cc2sc(C)cc2n1Cc1ccccc1 -17.6%, CCCOC(=O)c1ccc(NC(=O)Cn2nnc3sc4c(c3c2=O)CCC(C(C)(C)C)C4)cc1 (stereo not given) 0%, Cc1ccc(CNC(=O)CSc2ccc(-c3sc(-c4ccccc4)nc3C)nn2)cc1 -2.57%, CC(=O)c1cc(-c2ccc(F)cc2)n(CC(=O)NC2CCCCCC2)c1C -24.4%, CCCOc1ccc(/C=C/C(=O)Nc2sc3c(c2C(=O)OCC)CCC(C)C3)cc1OC (stereo not given) -6.95%, CCOc1ccc(CCNC(=O)CN2C(=O)c3cccnc3Oc3ccc(C)cc32)cc1OCC -2.03%, O=C(Nc1cccc(C(F)(F)F)c1)c1cc2nc(-c3ccccc3)cc(C(F)(F)F)n2n1 0.883%, CCCOc1ccc(-c2cccc(NS(=O)(=O)c3cccs3)c2)nn1 -13%, CCOc1ccccc1CNC(=O)CCCn1c(=O)c2cccn2c2cccnc21 1.53%, Clc1ccc(N2CCN(Cc3nnc(-c4ccc5c(c4)OCO5)o3)CC2)cc1 -7.03%, COc1ccc(-c2cccc(NS(=O)(=O)c3cccs3)c2)nn1 -14.8%, CN(C)CCOC(=O)C(c1ccccc1)C1(O)CCCC1 (stereo not given) 0.459%, CCCCN(CC)C(=O)c1c[nH]c2ccc(S(=O)(=O)Nc3cccc(OC)c3)cc2c1=O -3.71%, COc1ccc(NC(=O)C2=C(C)Nc3c(C(=O)Nc4ccc(C)cc4)cnn3C2c2cccc(Cl)c2)cc1 (stereo not given) -9.02%, COc1ccc(NC(=O)CC2Nc3cccc4cccc(c34)NC2=O)cc1 (stereo not given) -19.5%, Cc1ccc2oc(-c3cccc(NC(=O)c4cccc5c(Br)cccc45)c3)nc2c1 10.3%, CC(=O)N1c2ccccc2CC1C(=O)N1CCN(c2cccc(C)c2C)CC1 (stereo not given) -21.2%, CCc1cc(Cl)c(OC)c(C(=O)NC[C@@H]2CCCN2CC)c1O 3.77%, Cc1ccc2onc(CC(=O)N3CCN(c4ccccc4F)CC3)c2c1 -15.9%, COc1ccc(-c2cc(C)no2)cc1S(=O)(=O)N1CCN(c2ccc(C(C)=O)cc2)CC1 -25.6%, O=C(CCCn1c(=O)c2cccn2c2ccccc21)Nc1cccc(Cl)c1 -25.5%, Clc1ccccc1CSc1nncn2c1cc1occc12 15.8%, COc1ccc(C(=O)NCC(c2cccnc2)N2CCN(c3ccccc3F)CC2)cc1OC (stereo not given) -30.4%, CCCc1nn2c(=O)cc(COC(=O)c3ccccc3NC(=O)C3CCCCC3)nc2s1 -10.4%, CCC(=O)N1CCc2cc(S(=O)(=O)CCC(=O)NCc3ccccc3Cl)ccc21 1.48%, COC(=O)c1c(C)sc(-c2c(-c3ccc(F)cc3)[nH]c3[nH]c(=O)[nH]c(=O)c23)c1O 1.57%, Cc1ccc(NC(=O)C2CCN(S(=O)(=O)c3cccs3)CC2)cc1 -29.3%, CCC(=O)O[C@]1(C(=O)SCF)[C@H](C)C[C@H]2[C@@H]3C[C@H](F)C4=CC(=O)C=C[C@]4(C)[C@@]3(F)[C@@H](O)C[C@@]21C, CCc1ccc(NC(=O)CN(c2ccc(C)cc2)S(=O)(=O)c2c(C)nn(C)c2C)cc1 -18.6%

From PubChem BioAssay AID1508623 (National Center for Advancing Translational Sciences (NCATS), 2021)
